# Test results taken from PubChem BioAssay AID651820 (National Center for Advancing Translational Sciences (NCATS), 2012).
# Values joined by “and” are separate entries in the source; they are usually repeats but may differ in a detail not shown here. Equal values may be shown once. The whole screen tested about 340,000 compounds, of which about 12,000 (3.5%) were called active. The inconclusive results got no clear call from the source; some entries with a clear call stand among them for comparison. The call rests on the fitted dose curve; in most records, active means well fitted inhibition curve with a large enough effect; inconclusive means small, poorly fitted or top-dose-only effect, or another doubt; inactive means no such curve, though single readings can be large or run the other way. Potencies of inconclusive entries are left out as doubtful fits.
# Assay: qHTS Assay for Inhibitors of Hepatitis C Virus (HCV)
# Conditions: Huh7.5.1 HCVcc-Cre (HCVcc is cell-culture hepatitis C virus) infection, luciferase reporter, 44 h; activity change, negative = inhibition: at 41.8 µM (top of the series) unless noted
# Summary of the method: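 Infectious HCVcc-Cre (~0.5 moi) was added to cells just after compound, with cells seeded 4 h earlier at 1,000 per well. Luciferase activity after 44 h culture reported infection; substrate was incubated 15 min at room temperature before reading.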
# On the % scale 0 is the no-effect control and ±100 the full control effect; potency means the concentration at half of the fitted maximal effect; tags describe the fitted curve by direction and shape.
Structure (SMILES),Potency,"activity change, negative = inhibition"
Cn1c(CSCc2ccc(Cl)cc2)nnc1SCC(=O)Nc1nccs1,"inconclusive [inhibitor, partial curve]",–
CCOc1ccc(NC(=O)CN(C)C(=O)CCCn2c(=O)oc3ccccc32)cc1OCC,"inconclusive [inhibitor, partial curve]",–
O=C(Cc1ccccc1)N/N=C/C=C/c1cccc([N+](=O)[O-])c1,–,inactive: 12%
Cc1csc(NC(=O)NCC2CCCC(CNC(=O)Nc3nc(C)cs3)C2)n1 (stereo unspecified),"inconclusive [inhibitor, partial curve, poor fit]",–
CCNc1nc(NCC)nc(-n2nc(C)cc2C)n1,"inconclusive [inhibitor, single point]",–
CN1CCN(c2ccc(CNS(=O)(=O)c3ccccc3)cc2)CC1,–,inactive: 17.5%
CCOC(=O)C1(Cc2ccc(OC)cc2)CCN(C(=O)c2cc3ccccc3[nH]2)CC1,"inconclusive [inhibitor, single point]",–
COc1ccccc1C(=O)Nc1ccc(Oc2nnc(-c3ccc(C)cc3)c3ccccc23)cc1,"inconclusive [inhibitor, partial curve]",–
COc1ccc(N2CCN(c3c(S(=O)(=O)c4ccccc4)cnc4ccc(OC)cc34)CC2)cc1,active: 11.2 µM,–
CON(C)S(=O)(=O)c1cccc(C(=O)NC2CCSc3ccccc32)c1 (stereo unspecified),"inconclusive [inhibitor, partial curve]",–
O=C(NC1CCCCC1)/C(=N\O)c1ccccn1,–,inactive: 16.5%
O=C(NCCN1CCOCC1)C(=O)c1c[nH]c2ccccc12,–,inactive: -8.87%
O=C(CSc1nnc(Cn2nnc3ccccc32)o1)N(Cc1ccc(F)cc1)c1ccccc1,active: 1.58 µM,–
ClCCOCOCCCl,–,inactive: -11.1%
O=C(Nc1ccc(S(=O)(=O)NC2CCCCC2)cc1)c1ccc(Br)o1,"inconclusive [inhibitor, partial curve]",–
CC(=O)c1ccc(N2CCN(C(=O)CCCn3c(=S)[nH]c4cc5c(cc4c3=O)OCO5)CC2)cc1,"inconclusive [inhibitor, single point]",–
COc1cccc(-c2sc3ccc(OC)cc3c2-c2ccc(OCCN3CCOCC3)cc2)c1,"inconclusive [inhibitor, single point]",–
Cc1ccc(-c2csc(Nc3ccc(S(N)(=O)=O)cc3)n2)o1,–,inactive: -7.01%
CCCOc1ccccc1C1CC(=O)Nc2cc3c(cc21)OCO3 (stereo unspecified),active: 2.24 µM and active: 3.55 µM,–
Cn1c2ccccc2c(=O)c2c(=O)n(C3CCCCC3)c(-c3ccco3)nc21,"inconclusive [inhibitor, full curve]",–
CCOC(=O)N1c2ccccc2Sc2ccccc21,"inconclusive [inhibitor, single point]",–
Cc1noc(C)c1COc1ccccc1C(=O)NCCc1ccc(F)cc1,"inconclusive [inhibitor, single point]",–
CN(C)c1ccc(/C=C2\CCC/C(=C\c3ccccc3)C2=O)cc1,"inconclusive [inhibitor, single point]",–
COc1ccc(NC(=O)c2cc3c(-c4ccc(OC)c(OC)c4)nn(C)c3s2)cc1OC,"inconclusive [inhibitor, partial curve, poor fit]",–

Structure (SMILES),Potency,"activity change, negative = inhibition"
COc1ccc(/C=C/C(=O)c2ccc3c(c2)OCCO3)cc1[N+](=O)[O-],active: 31.6 µM,–
COc1cc(OC)cc(C(=O)NC(C(=O)NCCN(C)C)C23CC4CC(CC(C4)C2)C3)c1 (stereo unspecified),active: 10 µM,–
C=CCn1c(CCNC(=O)c2ccc(Cl)c(Cl)c2)nnc1SCCOc1ccc(OC)cc1,active: 10 µM,–
CC1(C)Cc2cccc(OCC(=O)NCc3ccccc3F)c2O1,"inconclusive [inhibitor, full curve, poor fit]",–
CC(C)CNC(=S)Nc1ccccc1F,–,inactive: 26.7%
O=C(NC(=S)Nc1ccccn1)c1cncc(Br)c1,–,inactive: -6.31%
O=C(c1ccccc1)c1cccc(NC(=O)c2ccc(Br)o2)c1,"inconclusive [inhibitor, partial curve]",–
CCN1CCN(C(=O)CSc2nc3c(c(=O)n(C)c(=O)n3C)n2C)CC1,–,inactive: 18.8%
CCC1CN2CCc3cc(OC)c(OC)cc3C2CC1CC1NCCc2c1[nH]c1ccc(O)cc21 (stereo unspecified),"inconclusive [inhibitor, full curve, poor fit]",–
O=C(NCCc1cccs1)C1CC(c2cccc([N+](=O)[O-])c2)=NO1 (stereo unspecified),"inconclusive [inhibitor, full curve, poor fit]",–
C=CCOc1ccccc1CN1CCCN(C)CC1,–,inactive: 10.5%
COc1ccccc1CN1CC(C(=O)NCCn2ccc(C)n2)CCC1=O (stereo unspecified),–,inactive: -2.38%
Cc1cc(C(=O)NCc2cc(C)n(C)n2)sc1-c1ccccc1,active: 3.98 µM,–
CCOC(=O)c1cc2sc(C)cc2n1CCCN1C(=O)c2ccccc2C1=O,"inconclusive [inhibitor, partial curve]",–
COc1cc(C(C)=O)ccc1OCCN1CCC(Cc2ccccc2)CC1,"inconclusive [inhibitor, single point]",–
COc1ccc(OC)c(N=C(C)C2=C(O)COC2=O)c1,"inconclusive [inhibitor, single point]",–
Cc1sc2ncnc(SCC(=O)N3CCOCC3)c2c1C,–,inactive: -6.09%
CC(C)Cn1c(N)c(S(=O)(=O)c2cccs2)c2nc3ccccc3nc21,"inconclusive [inhibitor, single point]",–
Cc1c(Cl)cccc1NC(=O)c1cccc(OC(F)F)c1,"inconclusive [inhibitor, full curve, poor fit]",–
CC(C)CCC(O)(c1ccccc1)C(CN1CCOCC1)c1ccccc1 (stereo unspecified),"inconclusive [inhibitor, single point]",–
CC(=O)c1cccc(NC(=O)/C=C/c2ccc([N+](=O)[O-])s2)c1,"inconclusive [inhibitor, partial curve]",–
CCOC(=O)c1c(NC(=O)CSc2c[nH]c3ccccc23)sc2c1CCC2,"inconclusive [inhibitor, full curve]",–
CCOc1ccccc1N(CC(=O)NCCSCc1ccco1)S(=O)(=O)c1ccccc1,active: 12.6 µM,–
c1ccc(CNCCCNCCCCNCCCNCc2ccccc2)cc1,"inconclusive [inhibitor, single point]",–

Structure (SMILES),Potency,"activity change, negative = inhibition"
Cc1ccc(S(=O)(=O)Cc2ccc(C(=O)N3CCN(c4cccc(C)c4C)CC3)o2)cc1,"inconclusive [inhibitor, partial curve, poor fit]",–
CCOc1ccccc1NC(=S)NC1CCCCC1,"inconclusive [inhibitor, full curve]",–
COC(=O)C(C#N)c1nc2ccccc2nc1N1CCCC1 (stereo unspecified),"inconclusive [inhibitor, partial curve]",–
CCC(=O)Nc1cccc(NC(=O)c2cccc([N+](=O)[O-])c2C)c1,"inconclusive [inhibitor, full curve, poor fit]",–
CSc1sc(C(=O)NC(=O)NCc2cccnc2)c(C)c1-c1ccon1,"inconclusive [inhibitor, single point]",–
CCOC(=O)c1[nH]c2ccccc2c1NC(=O)c1ccc2c(c1)OCO2,"inconclusive [inhibitor, partial curve]",–
Cc1ccc(C2(C)NC(=O)N(CC(=O)Nc3nc(-c4ccccn4)cs3)C2=O)cc1 (stereo unspecified),active: 6.31 µM,–
Cc1ccc(/C=C2\SC(=S)N(NS(=O)(=O)c3ccc(C)cc3)C2=O)cc1,–,inactive: 4.97%
COc1ccc(OC)c(C2=Nn3c(nnc3-c3ccco3)SC2)c1,"inconclusive [inhibitor, single point]",–
CCCNC(=O)C1CC(=O)N(c2ccc(OCc3ccc(F)cc3)cc2)C1 (stereo unspecified),–,inactive: -8.15%
Cc1ccc(NC(=O)CSc2nnc(COc3ccc(C#N)cc3)n2-c2ccccc2)cc1C,"inconclusive [inhibitor, partial curve]",–
COc1ccc(N2CCN(c3oc(-c4ccc(OC)c(OC)c4)nc3C#N)CC2)cc1,–,inactive: 20.7%
CN(c1ccc(C(=O)NCCSCc2ccccc2)cc1)S(=O)(=O)c1ccccc1,"inconclusive [inhibitor, single point]",–
CCCCCCCc1c(C#N)c(N)[nH]c(=S)c1C#N,"inconclusive [inhibitor, single point]",–
COC(=O)C1=C(N)Oc2cc(C)n(Cc3cccnc3)c(=O)c2C1c1ccc(OC)c(OC)c1 (stereo unspecified),–,inactive: 5.94%
CN(C)CCN(C(=O)C1CCN(S(=O)(=O)c2cccs2)CC1)c1nc2c(F)cccc2s1,"inconclusive [inhibitor, partial curve]",–
CCCSc1nc2sc3c(c2c(=O)n1-c1ccc(OC)cc1)CCN(C)C3,active: 11.2 µM,–
OCCNCc1c(OCc2ccc(Cl)cc2)ccc2ccccc12,active: 11.2 µM,–
O=C(NNC(=S)NC(=O)c1ccccc1)c1ccc(O)cc1,"inconclusive [inhibitor, single point]",–
CC(=O)N1c2ccc(S(=O)(=O)N3CCC(C(=O)NCc4ccc(F)cc4)CC3)cc2CC1C (stereo unspecified),"inconclusive [inhibitor, single point]",–
Cc1onc(-c2ccccc2Cl)c1C(=O)O/N=C(\N)c1ccccc1,"inconclusive [inhibitor, single point]",–
O=C(Nc1nnc(-c2cccnc2)o1)c1ccccc1Cl,–,inactive: 26.3%
COC(=O)c1ccc(NC(=O)c2ccc(C)cc2)o1,"inconclusive [inhibitor, single point]",–
